Test results as given in PubChem BioAssay AID1508624 (National Center for Advancing Translational Sciences (NCATS), 2021).
Out of some 48,000 compounds screened, about 120 (0.25%) were called active. Another 4% or so got no clear call; they are omitted. The call rests on the fitted dose curve; in most records, active means well fitted activation curve with a large enough effect; inconclusive means small, poorly fitted or top-dose-only effect, or another doubt; inactive means no such curve, though single readings can be large or run the other way. This is one part of the list.

Experiment: Primary qHTS for Identification of Small Molecule Activators of Huntingtin-Antisense Promoter Activity; further: nearly all actives have a fitted effect of over 55% in size
Settings: HEK293 HTT-AS promoter firefly luciferase reporter, 24 h; series mostly up to 57.5 µM; activity change, positive = activation: at the top concentration
Procedure, shortened: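 HEK293 Fluc reporter, 2,500 cells/well, 24 h pre-culture; cpds up to 57.5 uM final, 24 h 37 degrees C; Dual-Glo, 10 min RT; normalized vehicle = 0%, zero RLU = -100%.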

Activity change, positive = activation, inactive:
CCC(Sc1nncn2c1cc1oc(C)cc12)C(=O)Nc1ccc(F)cc1 (stereo unspecified) -19.1%
COCCn1c(=N)c(C(=O)NC(C)c2ccccc2)cc2c(=O)n3cc(C)ccc3nc21 (stereo unspecified) 0.877%
COc1ccc(CCNC(=O)C(=O)NCC(c2ccco2)S(=O)(=O)c2ccc(F)cc2)cc1 (stereo unspecified) -15.4%
COc1ccccc1OCC(O)CO (stereo unspecified) -4.14%
O=C(NCCCc1ccccc1)C1CCN(C(=O)N2CCOc3ccc(Cl)cc32)CC1 -30.5%
Cn1ccc2c(OCC(=O)Nc3cc(C(F)(F)F)ccc3Cl)cccc2c1=O -32.2%
CCOc1ccccc1NC(=O)CCn1nc(C)c(S(=O)(=O)N2CCCCC2)c1C -22.9%
COc1ccc(C2C=C(c3ccccc3)Nc3nc(NC(=O)/C=C/c4ccccc4)nn32)cc1 (stereo unspecified) -13.6%
CCN(CC)S(=O)(=O)c1ccc2c(c1)c(=O)c(C(=O)N1CCN(c3ccc(F)cc3)CC1)cn2C -13.1%
O=C(Cn1ncc2c3ccccc3n(Cc3cccc(Cl)c3)c2c1=O)NC1CCCCCC1 -1.26%
CCc1ccc(NC(=O)CSC2=Nc3ccccc3C3=NC(CC(=O)NCc4ccccc4)C(=O)N23)cc1 (stereo unspecified) -1.61%
CCN1CCSc2ccc(C(=O)NCc3ccc(OC)cc3)cc21 -5.23%
COC(=O)CCN(c1ccccc1)S(=O)(=O)c1cc(-c2cc(C)no2)ccc1OC -14%
CCCN(CCC)C(=O)c1c2c(nc3ccccc13)C(=O)N(C1CCCCC1)C2 -4.53%
Cc1cc(S(=O)(=O)C(CNC(=O)COc2ccc(Cl)cc2)c2cccs2)ccc1F (stereo unspecified) -14.6%
Cc1cc(=O)[nH]c(=S)[nH]1 3.57%
Cc1ccc(CCNC(=O)C2CCN(Cc3nc(-c4ccccc4C)oc3C)CC2)cc1 -29.6%
CCCN(C(=O)c1coc(=O)c2ccccc12)c1ccccc1C -14.9%
CCc1ccc(OCC2c3cc(OC)c(OC)cc3CCN2C(=O)COc2ccccc2)cc1 (stereo unspecified) -26.4%
Cc1ccc(N2C(=O)CSC23C(=O)N(CC(=O)Nc2ccc(C(C)C)cc2)c2ccccc23)cc1C (stereo unspecified) -12.1%
COc1ccc(-n2nc(C(=O)Nc3cccc(C)n3)c3c4ccccc4n(C)c3c2=O)cc1Cl -19%
CCOc1ccc(CCNC(=O)CCc2cn(Cc3ccc(F)cc3)c3ccccc23)cc1 -25.7%
COc1cccc(NC(=O)C(Cc2ccccc2)NS(=O)(=O)c2ccc3c(c2)oc(=O)n3C)c1 (stereo unspecified) -8.74%
Cc1coc2cc3oc(=O)c(CC(=O)NCCc4ccccc4)c(C)c3cc12 -4.69%
CCOc1ccc(NC(=O)Cn2cc(C(=O)c3ccco3)c3ccccc32)cc1 -5.52%
CCOc1ccc(CCNC(=O)c2cc3c(-c4ccc(OC)c(OC)c4)nn(C)c3s2)cc1OCC -51.5%
CCn1c(=O)cc(OCC(=O)Nc2cc(Cl)c(OC)cc2OC)c2ccccc21 -3.72%
Cc1cccc(N2CCN(S(=O)(=O)c3cc(C(=O)Nc4ccccc4Cl)ccc3F)CC2)c1C -31.8%
CCc1ccccc1NC(=O)CSc1nnc2ccc3ccccc3n12 -9.67%
COC(=O)c1cc2oc3ccccc3c2n1Cc1nc(-c2ccccc2C)oc1C -16.6%
O=C(CSCc1cc(=O)c2cc(F)ccc2[nH]1)Nc1ccccc1Cl -20.8%
CCC(C)NC(=O)CCc1c(C)nc2nc(-c3cc(OC)cc(OC)c3)nn2c1C (stereo unspecified) -7.2%
CC(C)(C)OC(=O)N1CCC(c2c(C(=O)NCCN3CCC(Cc4ccccc4)CC3)cnn2-c2ccc(F)cc2)CC1 -23.2%
Cc1ccc(NC(=O)[C@@H](c2ccccc2)N2Cc3ccccc3C2=O)cc1 -0.875%
COc1ccc(OC)c(CCNc2nc3ccccc3c3nc(-c4cccnc4)nn23)c1 -11.2%
Brc1ccc(-n2nc(-c3ccccc3)c3cnc4cc5c(cc4c32)OCO5)cc1 -2.99%
Cc1ccc2[nH]c(CSc3nnc(NC(=O)c4ccc(Cl)cc4)s3)cc(=O)c2c1 0.851%
CCOc1ccccc1NC(=O)Cn1c(=O)n(-c2cccc(C)c2)c(=O)c2c1c1cc(OC)ccc1n2C -2.38%
COc1ccc(C2C=C(c3ccccc3)Nc3nc(NS(=O)(=O)c4ccc(Cl)cc4)nn32)cc1 (stereo unspecified) -11.1%
O=C(Cn1c(=O)n(CC2CCC(C(=O)NCCc3ccccc3)CC2)c(=O)c2ccccc21)Nc1cccc(F)c1 (stereo unspecified) -19%
CC(=O)c1cc2c(cc1N/C(=N/S(=O)(=O)c1ccc(Br)cc1)c1ccccc1)OCO2 -17.1%
COc1ccc(C(=O)Cn2c(=O)c(-c3cc(C)ccc3NC(C)=O)nc3ccccc32)cc1 -28.2%
COC(=O)c1ccccc1NC(=O)N1CCc2c(sc3c2CCCC3)C1c1ccc(F)cc1 (stereo unspecified) 1.06%
Cc1ccccc1Cn1c(CN2CCCC(C)C2)nc2c1c(=O)n(C)c(=O)n2C (stereo unspecified) 15.2%
CCOc1ccc(C(=O)c2cn(CC(=O)Nc3ccc(Cl)cc3)c3cc4c(cc3c2=O)OCCO4)cc1 -30.8%
CCOc1ccc(Nc2nc(-c3c(C)nc4ccccn34)cs2)cc1 -37.2%
Cc1ccc(C)c(N2CCN(C(=O)c3noc4c3CCCCC4)CC2)c1 -24.4%
COc1cc(NC(=O)c2cc(S(=O)(=O)N3CCc4ccccc43)cn2C)cc(OC)c1OC -24.2%
Cc1ccc(C)c(CN2C(=O)c3ccccc3S(=O)(=O)c3ccc(C(=O)N4CCCCC4)cc32)c1 -6.81%
CC(=O)[C@H]1CC[C@H]2[C@@H]3C=CC4=CC(=O)CC[C@@]4(C)[C@@H]3CC[C@]12C -24.3%
COc1ccc(OC)c(NC(=O)c2cnn(-c3ccc(C)cc3)c2C2CCNCC2)c1 -1.96%
CCc1ccccc1N(C)C(=O)c1cc2c(=O)oc3ccccc3c2s1 -4.39%
CC(C)CC(=O)Nc1c(C(=O)N2CCN(c3ccccc3)CC2)oc2ccccc12 -16.2%
CCCCCOC(=O)Nc1nc(=O)n([C@@H]2O[C@H](C)[C@@H](O)C2O)cc1F (stereo partly specified) 9.84%
COc1cc2c(=O)n(CCc3ccccc3)c(=O)n(CC(=O)Nc3ccccc3)c2cc1OC -35.1%
O=C(COc1ccccc1[N+](=O)[O-])N(Cc1ccco1)c1ccccn1 21.9%
O=C(C1CCC1)N1CCc2cc(S(=O)(=O)NCc3ccc(F)cc3)ccc21 -27.9%
COc1ccc(C)cc1NC(=O)N1CCCn2nc(C)cc21 -20%
COc1ccc(NC(=O)Cn2c(SCc3cc(C)ccc3C)nc3ccncc32)c(OC)c1OC -19.3%
COc1ccc2c(CNCc3cccs3)c(C(=O)O)n(Cc3ccccc3)c2c1 -18%
Cc1c(CCNC(=O)c2ccc(Br)o2)sc2nc(-c3ccc(F)cc3)nn12 -43.9%
CCOc1ccccc1NC(=O)Cn1cc(C(=O)c2cccc(OC)c2)c(=O)c2ccc(C)nc21 -33.8%
O=C(Cn1c(=O)c2cccn2c2ccccc21)NCCc1ccccc1 -6.36%
COc1cc(NC(=O)CN(c2ccc(C)cc2)S(=O)(=O)c2cccc3nonc23)cc(OC)c1 -12.2%
CCOc1ccccc1C(=O)Nc1ccc(S(=O)(=O)Nc2nc(C)cc(C)n2)cc1 -4.76%
CCc1cccc(NC(=O)CSC2=Nc3ccccc3N=C(c3ccc(F)cc3)C2)c1 -37.1%
Cc1ccc2nc(NC(=O)COc3ccc(F)cc3)sc2c1 1.16%
Cc1ccc(NC(=O)Cn2cnc3sc(C(=O)O)c(C)c3c2=O)cc1Cl -1.44%
O=C(CSc1nnc(CNC(=O)c2cccc(F)c2)n1-c1ccccc1)Nc1ccccc1F -19.5%
CCN1CCN(c2nc3c(S(=O)(=O)c4ccc(Br)cc4)nnn3c3ccsc23)CC1 -8.79%
CN[C@@H](C)C(=O)N[C@H]1CN(C(=O)CC(C)C)CC[C@H]2CC[C@@H](C(=O)NC(c3ccccc3)c3ccccc3)N2C1=O -31.8%
Fc1ccc(-c2noc3ncnc(NCCc4ccccc4)c23)cc1 -36.4%
COc1ccc(Nc2nc(-c3ccc(C)cc3)nc3ccccc23)c(OC)c1 -17.5%
CCCCCn1c(C(C)NC(=O)c2ccccc2)nc2ccccc21 (stereo unspecified) -20%
CCOc1ccc(-c2nonc2NC(=O)COc2c(C)cc(C)cc2C)cc1OCC -8.41%
COc1ccc2c(c1)c1c(c(=O)n(Cc3ccccc3)c(=O)n1CC(=O)NCc1ccccc1Cl)n2C -3.9%
CCOc1cc(CNC(=O)C2COc3ccccc3C2)cc(OCC)c1OCC (stereo unspecified) 5.56%
Cc1cccn2c(=O)c(/C=C(\C#N)c3nc4ccccc4[nH]3)c(Oc3ccc(C(C)(C)C)cc3)nc12 2.23% [at 11.5 µM, percent change from vehicle, -100% = no light]
CCOc1ccc(-c2ccc(NS(=O)(=O)c3ccc(C)cc3)cc2)nn1 -20.2%
COc1ccc(CCCc2nnc(SCC(=O)Nc3ccc(C)cc3)o2)cc1 -1.15% [at 11.5 µM, percent change from vehicle, -100% = no light]
O=C(CCc1nc(-c2cccs2)no1)Nc1cccc([N+](=O)[O-])c1 -13.5%
Cc1ccc(C)c(N2CCN(C(c3ccccc3)c3nnc(-c4ccccc4F)o3)CC2)c1 (stereo unspecified) -5.13%
Cc1ccc(OCC(=O)OCc2cc(=O)n3nc(-c4cccs4)sc3n2)cc1C 13%
Cc1ccc(-c2nc3n(n2)C(=O)CC(c2ccc(Cl)cc2)S3)cc1 (stereo unspecified) 4.86%
Cc1cc(C)c(NC(=O)Cn2c(=O)n(-c3ccc(CC(=O)NCC4CCCO4)cc3)c(=O)c3ccccc32)c(C)c1 (stereo unspecified) -3.25%
O=C(NCc1ccc(F)cc1)c1cc2n(n1)CCCN(Cc1ccc(F)cc1)C2=O 12.4%
Cc1ccc(C(=O)Nc2sc3c(c2C(=O)NCc2ccco2)CCC(C(C)(C)C)C3)cc1 (stereo unspecified) -0.189%
CCOc1ccc(Sc2cc(C(=O)NC(C)c3ccccc3)c3ccccc3n2)cc1 (stereo unspecified) -22.3%
Cc1ccsc1CN(C(=O)COc1ccc(Br)cc1)C1CCS(=O)(=O)C1 (stereo unspecified) -24%
Cc1ccc(C(=O)Nc2ccc(NC(=O)c3cccs3)cc2)cc1C -11.7%
CCc1cc(C(C)=NOCc2ccc(C3CCCCC3)c(C(F)(F)F)c2)ccc1CN1CC(C(=O)O)C1 -13.3%
